Reference: paper PMC4336329 (PLoS ONE, 2015)
Screen size: about 310,000 compounds; about 14,000 (4.5%) showed an effect of 50% or more. The effect is printed as a negative number. This is one part of the list.

target: human ether-à-go-go-related gene (hERG) potassium channel (human, UniProt Q12809); assay: primary screen, population patch clamp on CHO cells stably expressing hERG
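Note: peak tail current of the secondary pulse compared with the same well before compound.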

Sequence of human ether-à-go-go-related gene (hERG) potassium channel (Q12809 whole entry, looked up): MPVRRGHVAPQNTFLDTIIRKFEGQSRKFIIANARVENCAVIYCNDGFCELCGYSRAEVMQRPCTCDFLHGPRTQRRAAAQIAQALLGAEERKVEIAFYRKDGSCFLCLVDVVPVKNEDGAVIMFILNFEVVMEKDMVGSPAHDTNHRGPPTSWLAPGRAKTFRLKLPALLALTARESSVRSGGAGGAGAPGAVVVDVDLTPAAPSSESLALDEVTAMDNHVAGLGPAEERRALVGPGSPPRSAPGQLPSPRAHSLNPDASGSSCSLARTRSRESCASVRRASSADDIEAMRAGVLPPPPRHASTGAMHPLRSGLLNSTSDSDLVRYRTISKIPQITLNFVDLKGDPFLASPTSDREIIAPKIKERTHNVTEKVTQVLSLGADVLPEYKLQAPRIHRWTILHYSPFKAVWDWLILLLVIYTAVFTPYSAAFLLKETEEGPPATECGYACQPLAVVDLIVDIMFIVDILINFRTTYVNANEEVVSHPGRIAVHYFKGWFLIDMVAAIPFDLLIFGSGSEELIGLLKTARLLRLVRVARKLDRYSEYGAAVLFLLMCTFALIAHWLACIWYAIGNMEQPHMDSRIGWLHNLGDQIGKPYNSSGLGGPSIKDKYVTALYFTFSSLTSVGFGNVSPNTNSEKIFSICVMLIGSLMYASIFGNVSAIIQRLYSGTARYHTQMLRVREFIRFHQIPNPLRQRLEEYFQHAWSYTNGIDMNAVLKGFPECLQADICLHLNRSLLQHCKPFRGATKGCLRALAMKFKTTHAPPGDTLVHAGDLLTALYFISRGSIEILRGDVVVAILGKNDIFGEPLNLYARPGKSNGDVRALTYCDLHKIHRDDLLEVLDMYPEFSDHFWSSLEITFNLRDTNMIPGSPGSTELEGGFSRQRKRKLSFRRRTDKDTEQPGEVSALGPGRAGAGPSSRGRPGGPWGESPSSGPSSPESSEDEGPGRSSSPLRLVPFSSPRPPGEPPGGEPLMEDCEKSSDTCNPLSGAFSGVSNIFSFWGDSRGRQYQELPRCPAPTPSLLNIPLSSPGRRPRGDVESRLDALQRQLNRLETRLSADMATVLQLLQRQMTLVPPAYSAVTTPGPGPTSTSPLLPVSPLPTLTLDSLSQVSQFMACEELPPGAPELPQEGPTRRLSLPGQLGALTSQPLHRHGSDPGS

| Structure (SMILES) | hERG current change (%, negative = inhibition) at 10uM [%] |
| --- | --- |
| Cc1c(Br)c(=O)[nH]c(=O)n1COCc1ccccc1 | -5.85 |
| CC1=CC(=O)OC2CC3OC4C[C@@H](C)C5OC6CC7O[C@]8(C)C/C=C\C9OC%10CC%11OC(CC(C)CO)CC(O)[C@]%11(C)OC%10CC9OC8C[C@]7(C)O[C@]6(C)CCC5OC4C[C@]3(C)OC12 (stereo partly drawn) | 9.17 |
| CCN(CC)CCCNC(=O)/C=C/C(=O)O | -1.15 |
| COc1c(O)ccc2c1-c1c3c(cc4c1C(C2)N(C)CC4)OCO3 (stereo not drawn) | -28.7 |
| O=C(Nc1ccc2nc3n(c(=O)c2c1)CCCCC3)c1ccccc1[N+](=O)[O-] | -16 |
| Cc1ccc(C(=O)N2CCN(c3ncc(C(F)(F)F)cc3Cl)CC2)s1 | -59.8 |
| COc1ccc(C(C#N)N2CCCCCC2)cc1OC (stereo not drawn) | 9.63 |
| COc1ccccc1N(C)S(=O)(=O)c1ccc(C(=O)Nc2ccc3nc(C)sc3c2)cc1 | 11.6 |
| O=C(Cn1c(=O)n(CC(=O)N2CCCCC2)c(=O)c2sccc21)NCc1ccccc1 | 17 |
| COCC(C)N1CCC(Oc2ccc(C(=O)N3CCCC3)cc2)CC1 (stereo not drawn) | 5.11 |
| Cc1cc(N=Nc2ccc3ccccc3c2)ccc1O | 4.25 |
| Cc1ccc2c(ccn3cc4c(c(=O)n(C)c(=O)n4C)c23)c1 | 17.8 |
| CCOc1ccc(C(=O)Nc2ccc(C(=O)N3CCOCC3)cc2)c(OCC)c1 | 1.54 |
| O=C(Nc1cc2c(cc1Br)OCCCO2)c1ccccc1 | -1.48 |
| CCn1c(O)c(N=NC(=O)CNC(=O)c2ccccc2F)c2ccccc21 | -6.97 |
| O=C(CN1C(=O)NC2(CCCCCC2)C1=O)N1CCN(S(=O)(=O)c2ccccc2)CC1 | 5 |
| COc1ccc(CNC(=O)Cn2c(=O)n(CCC(=O)N3CCCCC3)c(=O)c3sccc32)cc1 | -25.9 |
| CN(C)Cc1ccccc1Cc1ccccc1.O=C(O)/C=C\C(=O)O | -10.1 |
| CN(CC(=O)Nc1cccc(F)c1)C(=O)c1ccc(S(=O)(=O)N2CCCC2)cc1 | -4.69 |
| COC(=O)C1C(=O)CC(C)(O)C(C(=O)OC)C1c1ccccc1F (stereo not drawn) | 12.7 |
| O=C(CSc1nnc(-c2ccccc2)n1-c1ccccc1)NCc1ccco1 | 1.47 |

| Structure (SMILES) | hERG current change (%, negative = inhibition) at 10uM [%] |
| --- | --- |
| Cc1ccc(C)c(NC(=S)NNC(=O)c2ccc(Br)o2)c1 | 18.7 |
| O=C(Nc1ccccc1-c1nc2ccccc2s1)c1ccc(Br)o1 | 12.8 |
| CCOc1ccccc1-n1c(COc2ccc(C)cc2)nnc1SCC(N)=O | -5.47 |
| Cn1c(=O)[nH]c(=O)c2c1nc(N1CCCC1)n2CCCSc1nc2ccccc2o1 | -25.4 |
| CCN1CCCC1CNC(=O)c1cc2c(-c3ccc(Cl)cc3)nn(C)c2s1 (stereo not drawn) | -62.4 |
| Cc1cc(C)c(NC2=NS(=O)(=O)c3ccccc32)c(C)c1 | -10.9 |
| O=C(/C=C/Nc1ccc(F)cc1F)c1cccs1 | 14.2 |
| Cc1nnc(SCC(=O)N2CCCCC2)s1 | -1.86 |
| COc1cc(C=O)ccc1Oc1cnccn1 | 19.4 |
| COC(=O)C1=C(C)NC(=O)NC1c1cc(Cl)ccc1OC (stereo not drawn) | 7.69 |
| Cc1ccnc(NC(=O)c2ccc(S(=O)(=O)c3ccccc3)cc2)c1 | 10.4 |
| O=c1c2ccccc2nc(-c2cccs2)n1-c1cnccn1 | 4.77 |
| CCOC(=O)[C@@H]1[C@H]2COc3ccccc3[C@@H]2N2C(=O)N(c3ccc(Cl)cc3)C(=O)[C@]12C | 9.54 |
| O=C(CCN1C(=O)C2C3CC(C(Br)C3Br)C2C1=O)OCC(=O)c1cccc([N+](=O)[O-])c1 (stereo not drawn) | 19 |
| NC(CCCCCP(=O)(c1ccccc1)c1ccccc1)C(=O)O (stereo not drawn) | 9.52 |
| CN(C)c1oc(-c2ccccc2Cl)nc1P(=O)(c1ccccc1)c1ccccc1 | -19.6 |
| N#C/C(=C\c1ccco1)C(=O)Nn1cnnc1 | 9.8 |
| CN(CCO)S(=O)(=O)c1ccc2c(c1)C(=O)c1cc(S(=O)(=O)N(C)CCO)ccc1-2 | 7.83 |
| CCOC(=O)c1cc2c(nc1C)-c1cc(Cl)cc(Cl)c1OC2O (stereo not drawn) | 12.8 |
| CC(=O)c1ccc(N2CCN(C(=O)/C=C/c3cccs3)CC2)cc1 | -25 |
| Oc1ccc(Br)cc1-c1nc2cnccn2c1NC1CCCC1 | -2.55 |
